Results: the RNAGym collection of RNA variant scans (doi:10.7554/elife.90254)
The source gives no read counts; variants with many changes may rest on few reads.

B1: LINE1-mini (parent)
chain: GGCAGAGCUCAACACAGCGUGGCAAAGUGGCUGUGGCUAGACUGCC

Variants of: B1
Assay: self-cleavage, relative activity (ratio to wild type); higher = more cleavage; in vitro, sequencing; the parent is a self-cleaving ribozyme

Variant | self-cleavage
C3A C13G G33U | 0.36
C3A C13G U28A C46A | 0.19
C3A C13U A14C G22C G30A G33C C37U | 0.19
C3A C13U A16U | 0.07
C3A C13U A41U | 0.71
C3A C13U C15A C23U A25U | 0.45
C3A C13U C15U U28C | 0.61
C3A C13U C31A G36U | 0.33
C3A C13U C37U C46A | 0.15
C3A C13U C42G | 0.11
C3A C13U G19A U20G | 0.81
C3A C13U G22C C37A | 0.62
C3A C13U G35A | 0.25
C3A C13U U20A G35C | 0.07
C3A C13U U28A G29A U32A | 0.24
C3A C15A A24U G29A C37A | 0.06
C3A C15A A25U U32G U43C | 0.12
C3A C15A C23U | 0.31
C3A C15A C23U G29U | 1.29
C3A C15A C46G | 0.08
C3A C15A G19U G27A G44A | 0.22
C3A C15A G19U U20C | 0.13
C3A C15G G27A | 0.04
C3A C15G G29A | 0.07

Variant | self-cleavage
C3A C15U C18A U28A C37G | 0.1
C3A C15U C31U G36U | 0.16
C3A C15U G33A | 0.79
C3A C15U G36C | 0.3
C3A C15U G40C | 0.22
C3A C18A C42A | 0.02
C3A C18G C31U | 0.03
C3A C18G G19C A26C | 0.39
C3A C18G U28A G33C | 0.18
C3A C18G U34A G40U | 0.67
C3A C18U A25C C45A | 0.13
C3A C18U C37U | 0.32
C3A C18U C42A | 0.14
C3A C18U G21U G40A G44U | 0.06
C3A C23G A24C | 0.16
C3A C23G A24G | 0.5
C3A C23G G33A C45A | 0.15
C3A C23G G36A C37A U38C | 0.24
C3A C23G G40A | 0.12
C3A C23G U32G | 0.19
C3A C23U A24C | 0.45
C3A C23U G27C G33C | 0.14
C3A C23U G30U | 0.16
C3A C23U G30U G33C | 0.26

Variant | self-cleavage
C3A C23U U28C | 0.26
C3A C23U U43A G44A | 0.15
C3A C31A U32C C46U | 0.12
C3A C31G G40U | 0.13
C3A C31U G36C | 0.09
C3A C31U G40U | 0.08
C3A C31U G44U C45U C46U | 0.13
C3A C37A A39G | 0.11
C3A C37A C46A | 0.53
C3A C37A C46G | 0.21
C3A C37G C42A | 0.2
C3A C37G G40A U43A | 0.13
C3A C37G G44A C46A | 0.06
C3A C37U G40A | 0.39
C3A C37U U43A | 0.19
C3A C42A C45U | 0.22
C3A C42A U43A C45A | 0.12
C3A C42G C46G | 0.03
C3A G5A A6U A11C C15A G27C U34A | 0.02
C3A G5A A11G C37G C45U | 0.03
C3A G5A A12C C15G G21U A25U | 0.04
C3A G5A A12U U32A C42U | 0.1
C3A G5A A16U A39C | 0.21
C3A G5A A16U C37U U43G C45G | 0.24

Variant | self-cleavage
C3A G5A C10U A39C C45A | 0.07
C3A G5A C13G A14C | 0.68
C3A G5A C15A G21C U38C C45A | 0.06
C3A G5A C18U G21U | 0.9
C3A G5A C42G | 0.11
C3A G5A G7A G29U G33A U43G | 0.04
C3A G5A G17C G44C | 0.05
C3A G5A G19C | 0.05
C3A G5A G21C C23A C31G | 0.09
C3A G5A G21C G36A | 0.28
C3A G5A G27U G35C | 0.26
C3A G5A U9A C10G C37U G44C | 0.03
C3A G5A U20C G30U U38C G40A C42G | 0.05
C3A G5A U20G A26G G35U | 0.05
C3A G5A U20G G21U G40U | 1.21
C3A G5A U32C | 0.49
C3A G5C A11U G27A U38A | 0.02
C3A G5C A12C C13U A14U U32G G35C A41C | 0.07
C3A G5C A26U | 0.43
C3A G5C C8G | 0.06
C3A G5C C10A A14U | 0.06
C3A G5C C10G A16C G22A G36C | 0.03
C3A G5C C13U A41G | 0.05
C3A G5C C42U | 0.06

Variant | self-cleavage
C3A G5C G17C U20G | 0.06
C3A G5C G30A A39C C42U | 0.09
C3A G5C U20C G29U G44C | 0.05
C3A G5C U28G | 0.05
C3A G5C U34A | 0.12
C3A G5U A6C C10A A16C A41G C42A | 0.01
C3A G5U A6C C15U A25G G27C A39U | 0.17
C3A G5U A25C G27A | 0.46
C3A G5U A25U A26G C46A | 0.05
C3A G5U A26C U43A | 0.09
C3A G5U C8G G22A | 0.03
C3A G5U C8U C46A | 0.08
C3A G5U C10G G33C C37U | 0.03
C3A G5U C13A C45G | 0.18
C3A G5U C13A G22U G29U A39U C46U | 0.34
C3A G5U C15G G27C U38G A41U C46U | 0.01
C3A G5U C18A G36C | 0.05
C3A G5U C23U | 0.09
C3A G5U C37U U38C | 0.12
C3A G5U G7C | 0.11
C3A G5U G29C U34A G40A | 0.04
C3A G5U G35C C42U | 0.18
C3A G5U G36U | 0.17
C3A G5U G36U A41U | 0.12

Variant | self-cleavage
C3A G5U G44U | 0.05
C3A G5U U20C | 0.08
C3A G5U U32C | 0.25
C3A G5U U32G | 0.13
C3A G7A A11G C18U A39G | 0.04
C3A G7A A14G A26U C45U | 0.76
C3A G7A A24C G27A C42G C45U | 0.01
C3A G7A C8A A39C | 2.1
C3A G7A C10A G17U | 0.06
C3A G7A G19U G36A | 0.55
C3A G7A G30A C31G U43C | 0.18
C3A G7A G33U G36A G40A C42U | 0.1
C3A G7A U9G G22U G27A G33C | 0.06
C3A G7A U32A | 0.03
C3A G7A U43A | 0.47
C3A G7C A11U | 0.02
C3A G7C A12C C15A C23A G40U | 0.02
C3A G7C A12C G17A A24G C31G G44U | 0
C3A G7C A16U | 0.07
C3A G7C A39U | 0.22
C3A G7C C10G C18U G40A | 0.02
C3A G7C C10G G40U | 0.02
C3A G7C C13A A26G G40U | 0.03
C3A G7C C13A A39G U43A G44U | 0.26

Variant | self-cleavage
C3A G7C C13G A41C | 0.02
C3A G7C C18A U20A G44U | 0.04
C3A G7C C31A U32G | 0.03
C3A G7C C31U G33C | 0.1
C3A G7C G17A G19C | 0.04
C3A G7C G21C | 0.04
C3A G7U A25U | 0.41
C3A G7U C8A A11G A12G C31G | 0.03
C3A G7U C10A A41C | 0.04
C3A G7U C10U G22A | 0.07
C3A G7U C15G G36A U38C | 0.09
C3A G7U C23A | 0.55
C3A G7U C23U | 0.41
C3A G7U C45A | 0.3
C3A G7U G17U U34G | 0.14
C3A G7U G27U C37A | 0.47
C3A G7U G27U C46A | 0.12
C3A G7U G27U G44U | 0.29
C3A G7U G29U G35U | 0.04
C3A G7U U32A C45G C46U | 0.18
C3A G17A A26U U32A | 0.06
C3A G17A U32A | 0.1
C3A G17C A39C | 0.42
